Laboratory results from the RNAGym collection of RNA variant scans (doi:10.7554/elife.90254).
Read counts are not given, so values of variants with three or more changes are uncertain.

B1: OR4K15 (parent)
chain: GUUAACGGUCAUAGGCCAUGGAAACUAGGAGCACCAUUUCGCUGCCAGUGAAGAAAUGAACAAAGAAAAUCUGGGCCAGGCAGGCAUCAAAAGAAAUAGUCUUGCGCUCAACCAGAAAGUCUGUAAUCAUUUUAAGGGUA

Variants of: B1
Assay: self-cleavage, relative activity (ratio to wild type); higher = more cleavage; in vitro, sequencing; the parent is a self-cleaving ribozyme

Row | Variant | self-cleavage
1 | A13G A24G A33U U103C | 1.06
2 | U12C A51G A52U | 1.18
3 | U87C A96G A111G | 0
4 | A36C A82G U133A G136U | 0.47
5 | A64G A78G A86U A116U U132C | 0.06
6 | A27G U102A A125G | 0.21
7 | U37C U39A A51U | 0.93
8 | A52G U57C C101U | 0.06
9 | U9C A82U A111G | 0.03
10 | C17A U39C A82G | 0.47
11 | A11U U43C U100C A129G | 1.79
12 | A30U U102C U120C U132C | 2.29
13 | A78G A94G U122C | 0.06
14 | U26A C113A U120C | 0.01
15 | G8A A78G A114G G137A | 0.13
16 | A5G U49C A54U A63G U103C | 0.69
17 | A22G A78G A116G A118G U139A | 0.05
18 | U26C A36G U100C | 2.28
19 | G7A A22G A64G A110G U127G U132C | 0.08
20 | U26A A59G A62G A78G U124C | 0.11
21 | A22G A82G A117G G137A | 0.68

Row | Variant | self-cleavage
22 | A60G A68G C77U U130C | 2.29
23 | U49C A69U A86G A111U A129G | 0.06
24 | A4G A66G U108A | 0
25 | U19C G41A A56G C88U U97C | 0.67
26 | A51G A69G A78G | 0.13
27 | U43G A54G U57A G74U A96G A135G | 0.16
28 | A52G A62G A68G | 0.65
29 | A82G A90U A116G A134G | 0.28
30 | A27G G74C A96U U108C C109A | 0.01
31 | G15U A22G A67G A91G | 0.3
32 | G21A A47G A60G A91G | 0.74
33 | U12C A63G U87C A89G U97C | 1.65
34 | U97G A114G A116C | 0.01
35 | A52G A56G A82G U122G | 0.88
36 | U19C A22G A63G | 1.15
37 | U19G C46U A47G | 0.79
38 | A55G A64G A114U | 0.05
39 | U70C U100C U122C | 2.06
40 | U12C U37C A52G A64G A114U | 0.12
41 | G14A A59G A125G | 0.56
42 | C10U U39A A67G | 1.02

Row | Variant | self-cleavage
43 | A89G A94G A118U | 0.89
44 | U9C G14C U19A A54U | 0.99
45 | A5G A63G A90G A135G | 1.02
46 | A62U A63U U70C A96G | 0.29
47 | C10U A60G U103C | 0.86
48 | A11G A125G U133C | 0.49
49 | G8A U49C A55G U102C | 1.84
50 | U9C A66G U108A U122A | 0.03
51 | A30U A66G G99U A111U | 0.06
52 | A23G U37C U132C | 1.99
53 | A51G A54U A67G U103A A111G | 0.02
54 | U103C A110G A117G U122C | 0.01
55 | U19C A78G U108C | 0.02
56 | U37C A47C A54G A82U | 0.17
57 | U57A A86G U103C | 1.03
58 | A36G U43C A96G U108C | 0
59 | A118G U120C U124A A126G A135G | 0.09
60 | A30G A52U U122C | 0.99
61 | A5G U19C U57C C61U | 0.79
62 | U9C A23G A86G A91G | 0.11
63 | U2C A55G C107G | 0.04

Row | Variant | self-cleavage
64 | U9A C32U U49C U72A A86G | 0.14
65 | A51G U108C U131C | 0
66 | U70A A96G A117G | 0.91
67 | U12C A59U A68G U122A U132C | 1.21
68 | A51U A52G A98U | 1.74
69 | A13G C32U A64G A118G | 0.81
70 | A5G C107U U127A | 0.15
71 | A11G A69G A111U A117G U122C | 0.05
72 | A52U A63G U72A U100G | 0.19
73 | A23U A36U U38C A56G A67G A135G | 1.3
74 | A23G A59G A125U | 1.12
75 | U19C U39C A60U | 1.53
76 | A55G A60G A66G A68U | 1.6
77 | C81U U97C A111G | 0
78 | U39A A98G A118G | 0.41
79 | A47G A51G A69G | 0.84
80 | U37C A51G U57C U72G | 0.47
81 | A5G A18G U122C | 0.97
82 | A47G A52G A62U U87C U122G | 1.98
83 | A52U A62U U100C U130C | 2.34
